# Publication PMC4336329 (PLoS ONE, 2015)
# Screen size: about 310,000 compounds; about 2,200 (0.71%) showed an effect of 50% or more. The effect is printed as a negative number. The list shows a part of the results.
# Target: human ether-à-go-go-related gene (hERG) potassium channel (human, UniProt Q12809)
# Test: primary screen, population patch clamp on CHO cells stably expressing hERG
# human ether-à-go-go-related gene (hERG) potassium channel, sequence (Q12809 whole entry, looked up): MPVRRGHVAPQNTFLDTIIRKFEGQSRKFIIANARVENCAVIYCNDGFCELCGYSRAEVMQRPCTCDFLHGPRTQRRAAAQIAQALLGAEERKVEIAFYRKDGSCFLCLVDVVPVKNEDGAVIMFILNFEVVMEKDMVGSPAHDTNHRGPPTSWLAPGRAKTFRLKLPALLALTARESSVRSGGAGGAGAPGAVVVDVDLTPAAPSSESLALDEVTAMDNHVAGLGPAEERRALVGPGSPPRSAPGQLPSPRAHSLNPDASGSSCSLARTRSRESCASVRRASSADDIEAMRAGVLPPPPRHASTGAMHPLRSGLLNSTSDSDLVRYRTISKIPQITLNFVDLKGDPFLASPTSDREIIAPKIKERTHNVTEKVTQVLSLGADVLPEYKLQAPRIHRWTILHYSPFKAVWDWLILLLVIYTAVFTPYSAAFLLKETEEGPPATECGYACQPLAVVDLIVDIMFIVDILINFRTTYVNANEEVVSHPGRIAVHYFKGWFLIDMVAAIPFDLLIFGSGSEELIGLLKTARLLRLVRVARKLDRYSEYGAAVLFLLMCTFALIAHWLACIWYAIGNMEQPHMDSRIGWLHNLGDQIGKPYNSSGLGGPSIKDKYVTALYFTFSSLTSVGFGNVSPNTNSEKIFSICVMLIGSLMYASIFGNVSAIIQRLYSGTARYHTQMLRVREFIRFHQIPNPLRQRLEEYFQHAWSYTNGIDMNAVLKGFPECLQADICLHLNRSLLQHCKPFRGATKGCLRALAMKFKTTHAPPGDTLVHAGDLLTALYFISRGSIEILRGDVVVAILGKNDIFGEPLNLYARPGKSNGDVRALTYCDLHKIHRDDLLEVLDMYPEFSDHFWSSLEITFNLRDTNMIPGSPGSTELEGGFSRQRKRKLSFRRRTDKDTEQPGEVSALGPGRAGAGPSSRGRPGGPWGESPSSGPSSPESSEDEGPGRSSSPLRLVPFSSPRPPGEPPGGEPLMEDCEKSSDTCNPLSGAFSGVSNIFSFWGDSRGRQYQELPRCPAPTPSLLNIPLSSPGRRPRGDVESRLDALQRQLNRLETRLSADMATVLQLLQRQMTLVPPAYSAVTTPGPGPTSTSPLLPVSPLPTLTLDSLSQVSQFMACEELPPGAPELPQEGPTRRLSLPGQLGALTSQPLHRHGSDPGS
row,SMILES,"hERG current change (%, negative = inhibition) at 1uM"
1,CC(=O)Nc1ccc(NC(=O)C2C3C=CC(C3)C2C(=O)O)cc1 (centres unmarked),11.3%
2,CC(C)CC(=O)Nc1nc(=S)ss1,14.2%
3,CCCCCC(=O)N/N=C/c1ccc([N+](=O)[O-])o1,0.253%
4,COc1ccc(-c2nc3cc([N+](=O)[O-])ccc3o2)cc1,13.4%
5,COc1ccc2c(c1)cc(C(O)c1ccccn1)n2S(=O)(=O)c1ccccc1 (centres unmarked),12.9%
6,O=C1CN(C(=O)/C=C/c2cccc(Cl)c2)c2ccccc2N1,7.62%
7,O=C(O)C1CCCN1S(=O)(=O)c1ccccc1 (centres unmarked),-9.03%
8,COc1ccc(CCNc2nc(C)cc(C)c2C#N)cc1OC,18.9%
9,COc1cccc(CCC(=O)O)c1OC,15%
10,COc1ccc(/C=C/C(=O)O)cc1S(=O)(=O)N1CCCCC1,7.16%
11,COc1ccc(CNCC(=O)Nc2cc(C)nn2-c2nc(C)cc(C)n2)cc1OC,-7.66%
12,N#Cc1nc(-c2ccc(F)cc2)oc1N1CCN(C(=O)c2ccco2)CC1,-24.9%
13,O=C(COC(=O)c1cccs1)NC1CCCC1,16%
14,CC(C)c1nc(-c2ccccc2)c(-c2ccccc2)[nH]1,4.94%
15,CC1CC(C)CN(CCCNC(=O)CN2C(=O)CSc3ccc(S(=O)(=O)N4CCOCC4)cc32)C1 (centres unmarked),15.7%
16,O=C(CN1C(=O)NC2(CCCCC2)C1=O)NCCC1=CCCCC1,14.5%
17,O=C(NCc1cccs1)c1cnc2ccccn2c1=O,-5.4%
18,NC(N)=N/N=C/c1ccc(Cl)cc1Cl,10.2%
19,C=CCn1c(SC/C=C/c2ccccc2)nnc1-c1sc(N)nc1C,5.53%
20,CCCN1CCC(=O)N([C@H](CSc2ccc(Br)cc2)Cc2ccccc2)CC1,-30.7%
21,CC(=O)N1CCN(C(=S)Nc2ccc(Oc3ccccc3)cc2)CC1,4.02%
22,CCCc1cc(NCc2ccccn2)n2c(nc3ccccc32)c1C#N,11.1%
23,COc1ccccc1/C=N/NC(=O)c1ccc2c(c1)OCO2,14.1%

row,SMILES,"hERG current change (%, negative = inhibition) at 1uM"
1,Cc1ccc(NC(=O)c2cccc(Oc3ccc([N+](=O)[O-])cc3)c2)c(C(=O)O)c1,10.6%
2,Cc1nc(C(C)N(C)Cc2nc(-c3ccc4c(c3)OCO4)no2)c(C)s1 (centres unmarked),12.2%
3,Cc1cc(NC(=O)CCl)no1,14.7%
4,CCCCN1C(=O)C(=O)N(c2ccccc2)C1=S,13.3%
5,CC(=O)OCC1=C(C(=O)O)N2C(=O)C(NC(=O)CCn3nc(C(F)(F)F)c(Br)c3C3CC3)C2SC1 (centres unmarked),7.08%
6,O=C(COc1ccc(-n2cnnn2)cc1)N1CCN(c2ccc(F)cc2)CC1,-60.3%
7,Cc1c(O)ccc(/C=N/Nc2ncccc2[N+](=O)[O-])c1O,10%
8,O=C(O/N=C1\CCS(=O)(=O)c2sccc21)c1c(F)cccc1F,5.56%
9,NC(=O)c1ccc(Cl)c2ccccc12,17.9%
10,COc1cc(NC(=O)c2ccc3nsnc3c2)cc(OC)c1OC,11.8%
11,O=C(NC(=S)NCc1ccccc1)c1cccnc1,6.35%
12,Cc1onc(-c2ccccc2)c1C(=O)N(Cc1ccccc1)C(C)C,13.4%
13,COc1ccc(Cl)cc1/C=C/c1ccc2cccc(O)c2n1,9.65%
14,CC(=O)Nc1ccc(S(=O)(=O)N(Cc2cccnc2)Cc2cc3ccc(C)cc3[nH]c2=O)cc1,10.7%
15,COc1ccccc1NC(=O)Cn1cc(C(=O)C2CC2)c2ccccc21,1.55%
16,CCc1ccc(NC(=O)CCC(=O)N2CCSc3ccccc32)cc1,8.82%
17,COc1ccccc1NS(=O)(=O)NC(=O)c1c(C)[nH]c2ccccc12,14.7%
18,Cc1ccccc1NC(=O)C(=O)NCCCN1CCCC1=O,20.7%
19,N#Cc1ccc(CN2CCN(C(=O)c3ccccc3)CC2)c(Cl)c1,-5.84%
20,CCCCc1nnc(SCc2ccc(OCC)cc2)n1N,12.2%
21,Fc1cccc(Cl)c1-c1nnc2ccc(C(F)(F)F)cn12,11.8%
22,CC(C)[C@H](NC(=O)NCCc1ccccc1)C(=O)O,11.2%
23,Cc1ccc(S(=O)(=O)N(C)c2ccc(C(=O)NCc3ccccn3)cc2)cc1,4.59%

row,SMILES,"hERG current change (%, negative = inhibition) at 1uM"
1,FC(F)(F)c1cccc(-c2nc(-c3ccncc3)no2)c1,7.89%
2,CCOC(=O)CSc1ccc(-c2nc3ccccc3[nH]2)cn1,9.8%
3,CCOc1ccc2nc(N3CCC(C(=O)Nc4nnc(CC)s4)CC3)sc2c1,1.64%
4,COc1cc(C=C2C(=O)c3ccccc3C2=O)cc(OC)c1OC,-0.75%
5,S=C1NCN(CCc2ccccc2)CN1Cc1ccccc1,17.4%
6,CCCCn1c(O)c(C=Nc2c(C)n(C)n(-c3ccccc3)c2=O)c(=O)[nH]c1=O,5.7%
7,CN1CCN(c2nc3c(c(=O)[nH]c(=O)n3C)n2CCSc2nc3ccccc3s2)CC1,6.06%
8,CC(=O)c1cccc(NC(=O)NCc2ccccn2)c1,-0.444%
9,CCCN(CCC)CCN1C(=O)C2C(C(=O)Nc3ccc(C)cc3)C3C=CC2(O3)C1C(=O)NC1CCCCC1 (centres unmarked),9.92%
10,CC(=O)Nc1ccc([C@H]2[C@H](C)CC[C@H]3C(=O)N4[C@@H](CC[C@@H](C)[C@@H]4c4ccc(NC(C)=O)cc4)C(=O)N32)cc1,22.3%
11,CC1CCN(S(=O)(=O)c2ccc3c(c2)N(CC(=O)N(C)Cc2ccco2)C(=O)CO3)CC1,12.3%
12,O=P(O)(O)c1ccccc1OCc1ccccc1,5.82%
13,O=C(COC(=O)C1=COCCO1)Nc1ccc(F)cc1,-0.194%
14,Cc1ccc(CN2C(=O)N/C(=C\c3cccn3-c3cccc(C(=O)O)c3)C2=O)cc1,8.31%
15,CN1CCCN(S(=O)(=O)c2ccc3ccccc3c2)CC1,13.7%
16,COc1ccc(C2C(C#N)=C(N)Oc3cc4c(cc32)OCO4)cc1 (centres unmarked),7.31%
17,C/C(=N\Nc1cccc2cccnc12)c1ccc[nH]1,6.24%
18,CCC1CCCCN1CCCNC(=O)c1ccc(/C=C2/Sc3ccccc3NC2=O)cc1 (centres unmarked),-38.8%
19,O=C(Nc1ccc(CN2CCCCC2)cc1)c1ccc(Br)o1,-7.22%
20,COc1ccc(C2Nc3ccccc3C(=O)N2O)cc1CN1CCOCC1 (centres unmarked),4.02%
21,O=C(COc1ccc2ccc(=O)oc2c1)Nc1ccc(N2CCOCC2)cc1,12.9%
22,O=C(Cn1cnc2c(nnn2Cc2ccccc2)c1=O)c1ccc(Cl)cc1,11.1%
23,CCN1C(=O)N[C@@H](c2cccc(C(F)(F)F)c2)[C@H](C(=O)OC)[C@H]1C,6.91%

row,SMILES,"hERG current change (%, negative = inhibition) at 1uM"
1,Cc1cc(-c2ccccc2)nc(SCC(=O)c2cccc([N+](=O)[O-])c2)n1,4.42%
2,C=CCN1C(C(=O)c2ccccc2)=C(OC(=O)COc2ccccc2)c2ccccc2S1(=O)=O,10.6%
3,O=C(Nc1ccnn1C1CCN(C(=O)c2ccc(Cl)cc2)CC1)C1CC1,-5.06%
4,COc1cc(C=O)ccc1OS(=O)(=O)c1ccc(NC(C)=O)cc1,7.51%
5,Cc1ccc(C(=O)COC(=O)c2cn(-c3ccccc3)nc2-c2ccccc2)cc1[N+](=O)[O-],10.9%
6,Cc1cccc(C(=O)NNC(=O)CN2C(=O)c3ccccc3C2=O)c1,6.01%
7,COc1ccc(C(=O)COC(=O)CCN=C2NS(=O)(=O)c3ccccc32)cc1OC,-12.1%
8,CC(C)c1ccc(S(=O)(=O)/N=C2/C=C(Sc3ncn[nH]3)C(=O)c3ccccc32)cc1,18.7%
9,CCC(NS(=O)(=O)c1cccs1)c1ccc(C)cc1 (centres unmarked),8.69%
10,COc1ccccc1/C=C(\C#N)C(=O)Nc1ccc(S(N)(=O)=O)cc1,16.8%
11,CCSc1nnc(Cn2c(=O)sc3ccccc32)n1C,12.4%
12,O=C(Nc1ccc(S(=O)(=O)N2CCCC2)cc1)c1cccnc1,14.2%
13,CN1CCN(S(=O)(=O)c2cccc(C(=O)Nc3nc(-c4ccccc4)cs3)c2)CC1,1.94%
14,CCCCn1c(N)c(N(CCOC)C(=O)CN2C(=O)C3CCCCC3C2=O)c(=O)[nH]c1=O (centres unmarked),8.64%
15,CCOC(=O)c1cnc(SCc2nc(N)nc(Nc3ccc(OC)cc3)n2)nc1N,13.9%
16,COc1ccc(/C=N/NC(=O)c2ccn[nH]2)cc1CN1CCOCC1,5.38%
17,Cc1cc(C)cc(OCC(=O)OCc2nnc(-c3ccccc3)o2)c1,10.9%
18,C=CCNC(=O)/C(=C\c1ccc2c(c1)OCO2)NC(=O)c1ccc(Br)cc1,-5.05%
19,O=C(Nc1ccc(F)cc1F)C1CCCN(c2ncnc3c2nc2n3CCCCC2)C1 (centres unmarked),0.36%
20,Cn1c(SCC(=O)Nc2nccs2)nnc1C1CC1,11.8%
